This is an account of results in patent US9688624B2, “DP2 antagonist and uses thereof” (Brickell Biotech, Inc., priority 2010, dated 2017).

The series addresses CYP2C9 (Homo sapiens (Human), UniProt P11712). It counts as in vitro ADME. Particulars: 10 μM, human hepatocytes, compared to native cells.

`COc1ccc(CC(=O)O)cc1Oc1ccc(NC(=O)C(C)(C)C)cc1CSC(C)(C)C` [Compound 1, 2-(3-(2-((tert-butylthio)methyl)-4-(2,2-dimethyl-propionylamino)phenoxy)-4-methoxyphenyl)acetic acid]: the “fold increase in 4-hydroxydiclofenac (CYP2C9) production” value stood at 0.5 fold.
